Measurements reported in PubChem BioAssay AID1745853 (National Center for Advancing Translational Sciences (NCATS), 2022).
Where “and” joins values, the source holds several entries; their conditions need not be identical. Equal values may be shown once. The list shows a part of the results. Shown are side measurements of this screen, not its main read-out; they come without a call. Peptide text beside a SMILES is read from it.

Tests used:
Experiment in all cases: Primary Screen for Target Class Profiling of Small Molecule Inhibitors of Methyltransferases
[1] = biological target: Glycine N-methyltransferase (Homo sapiens) (UniProt Q14749); details: purified enzyme, MTase-Glo SAH luminescence; measured here: GNMT inhibition; at 40 µM; stronger effect = lower value
In short: (§1)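 Each enzyme was reacted with SAM and its substrate, with compounds tested once at 40 uM; SAH formed was read by MTase-Glo luminescence.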

[2] = biological target: Guanidinoacetate N-methyltransferase (Homo sapiens) (UniProt Q14353); details: purified enzyme, MTase-Glo SAH luminescence; measured here: GAMT inhibition; at 40 µM; stronger effect = lower value
In short: as §1

[3] = biological target: Histamine N-methyltransferase (Homo sapiens) (UniProt P50135); details: purified enzyme, MTase-Glo SAH luminescence; measured here: HNMT inhibition; at 40 µM; stronger effect = lower value
In short: as §1

[4] = biological target: Nicotinamide N-methyltransferase (Homo sapiens) (UniProt P40261); details: purified enzyme, MTase-Glo SAH luminescence; measured here: NNMT inhibition; at 40 µM; stronger effect = lower value
In short: as §1

[5] = biological target: Phenylethanolamine N-methyltransferase (Homo sapiens) (UniProt P11086); details: purified enzyme, MTase-Glo SAH luminescence; measured here: PNMT inhibition; at 40 µM; stronger effect = lower value
In short: as §1
On the % scale 0 is the no-effect control and ±100 the full control effect.

Structure (SMILES)	activity change, negative = inhibition [1]	activity change, negative = inhibition [2]	activity change, negative = inhibition [3]	activity change, negative = inhibition [4]	activity change, negative = inhibition [5]
CCOC(=O)c1cnc(N2CC3CCC(C2)N3CC(F)(F)F)s1	-2.54%	-1.63%	-15.9%	-8.9%	-2.57%
COCCn1nc2n(c1=O)CCN(Cc1cccc(OC)n1)CC2	-0.066%	0.83%	0.065%	0.891%	2.18%
CC(C)n1cnc2c(NCc3ccccc3)nc(NCCCO)nc21	–	1.43%	–	-6.62%	6.61%
N#Cc1c(O)c2c(-c3ccc(-c4ccccc4O)cc3)csc2[nH]c1=O	-56.7% and 14.6%	-21.2%	-2.43% and 11.2%	-53.9% and -14%	-23.8% and -20.7%
COc1ccc(CN2C(=O)c3c(NC(C)=O)c4cc(C)ccc4n3CC2(C)C(=O)NC2CCCCCC2)cc1 (stereo not given)	-8.73%	-0.795%	-6%	-8.8%	-3.67%
CC1NC(=O)CNC(=O)C(C(C)C)NC(=O)C2CCCN2C(=O)C(C(C)C)NC(=O)C(Cc2c[nH]c3ccccc23)NC1=O (stereo not given) (cyclo(GAWVPV); configuration not given here)	3.1%	3.55%	11.9%	-9.61%	3.16%
COC(=O)c1ncn2c1C(=O)N(c1cc(C)ccc1C)C(C)(C(=O)NCc1ccccc1)C2 (stereo not given)	5.45%	0%	10.8%	7.5%	6.74%
CCn1cc(-c2ccncc2)cc1C(=O)NCc1ccc(OC(C)C)cc1	-7.08%	-3.83%	-19%	-10.6%	-6.33%
CCOCCCN1C(=O)c2cc3sc(CC)cc3n2CC1(C)C(=O)NC1CCCCCC1 (stereo not given)	4.01%	0%	7.8%	0.959%	-1.3%
Cc1ccsc1C(=O)NC1CCN(c2cc(-c3ccc(F)cc3)[nH]n2)C1 (stereo not given)	-7.71%	-2.58%	-0.606%	-17.9%	7.71%
COc1ccccc1N1CCN(C(=O)Cn2c(=O)n3nc(-c4ccccc4)nc3c3ccccc32)CC1	16.5%	0%	11.4%	4.27%	5.99%
CC1CCCC(NC(=O)C2(C)Cn3c(cc4sccc43)C(=O)N2Cc2ccccc2F)C1C (stereo not given)	-0.251%	0.714%	0.091%	1.26%	-1.79%
COc1ccc(C(=O)O[C@H]2CC(C)=CC[C@@]3(C)[C@@H](OC(C)=O)C[C@@](O)(C(C)C)[C@H]23)cc1	6.62%	7.84%	12.2%	-6.51%	1.46%
COC(=O)c1cc2n(n1)CC(C)(C(=O)NC1CCCCCC1)N(Cc1ccc(OC(C)C)cc1)C2=O (stereo not given)	5.79%	1.69%	-0.288%	5.5%	6.69%
CCOC(=O)c1cc2n(n1)CC(C)(C(=O)NC1CCCC1)N(c1cccc(C)c1C)C2=O (stereo not given)	3.25%	0%	2.86%	5.31%	1.6%
CCC(C)NC(=O)c1ccc2c(=O)n(CC(C)C)c3nn(CC(=O)NC4CCCC4)c(=O)n3c2c1 (stereo not given)	-1.56%	4.95%	4.32%	-7.77%	-2.57%
OCC1(CN2CCCC2)CCN(Cc2cnn(-c3ccccc3)c2)CC1	-3.21%	-4.87%	-29.7%	-4.89%	-3.34%
COc1cccc(C)c1C(=O)O[C@@H]1C[C@H](O[C@H]2[C@H](O)C[C@H](O[C@@H]3CCC[C@H]4[C@H]3C=C[C@@H]3CCCC/C=C/[C@H]5C=C(C(=O)O)[C@@H](C)C[C@@]56OC(=O)C(=C6O)OC(=O)[C@@]34C)O[C@@H]2C)O[C@H](C)[C@H]1O	0.415%	6.33%	10%	-7.5%	4.09%
Cc1cccc(CNC(=O)c2cc3n(n2)CC(C)(C(=O)NC2CCCCCC2)N(C)C3=O)c1 (stereo not given)	-5.31%	5.77%	-2.02%	5.56%	-1.32%
CN(C)CCN1C(=O)c2ccc(-c3ccco3)n2CC1(C)C(=O)NC1CCCCCC1 (stereo not given)	5.84%	3.79%	7.74%	4.14%	0.171%

Structure (SMILES)	activity change, negative = inhibition [1]	activity change, negative = inhibition [2]	activity change, negative = inhibition [3]	activity change, negative = inhibition [4]	activity change, negative = inhibition [5]
Cn1cnc(-c2cc3nccc(Oc4ccc(NC(=S)NC(=O)Cc5ccccc5)cc4F)c3s2)c1	4.97%	4.52%	12.4%	-23.3%	3.33%
CCCn1c(=O)c2ccc(C(=O)NC(C)CC)cc2n2c(=O)n(Cc3ccccc3F)nc12 (stereo not given)	2.74%	0%	6.65%	-3.59%	0.532%
O=C(CCc1nnc2n(Cc3ccc(Cl)cc3)c(=O)c3ccccc3n12)N1CCc2ccccc2C1	-0.808%	0.468%	5.9%	4.98%	3.29%
COc1cccc(CNC(=O)C2CCCCc3nnc(-c4ccccc4)n32)c1 (stereo not given)	-4.46%	-8.39%	-1.54%	-12.3%	-8.32%
CCCn1c(=O)c2ccc(C(=O)NC3CCCCC3)cc2n2c(=O)n(Cc3c(F)cccc3Cl)nc12	2.06%	4.72%	2.92%	4.54%	4%
Cc1n[nH]c(C)c1CNC(=O)C1CCCCC(=O)N1 (stereo not given)	0.748%	-0.317%	0.198%	-0.175%	0.539%
COc1cccc(N2C(=O)c3cc4sccc4n3CC2(C)C(=O)NC2CCC(C)CC2)c1 (stereo not given)	-2.06%	4.36%	-0.854%	0.013%	-2.98%
Cc1ccc(-c2ccc3c(ccc4sc5c(c43)NC[C@@H](C)NC5=O)n2)cn1	5.78%	4.7%	10.7%	-9.84%	-3.6%
Cc1cccc(CSc2nnc3n(Cc4ccccc4)c(=O)c4ccccc4n23)c1	4.92%	0.407%	3.77%	-0.349%	3.96%
CC(C)OCCCn1c(=O)c2ccccc2n2c(CCC(=O)Nc3ccc(F)c(F)c3)nnc12	-3.65%	15.1%	6.94%	-12.8%	-2.77%
Nc1nc(OCc2ccccc2)c2[nH]cnc2n1	-12.3%	-4.45%	-4.27%	-21.8%	-12.2%
CC1C(O)C(O)C2C(C(=O)OCCc3ccc(O)cc3)=COC(O[C@@H]3O[C@H](CO)[C@@H](O)[C@H](O)[C@H]3O)C12 (stereo not given in full)	3.37%	5.48%	11.2%	-3.65%	3.44%
Cc1ccc(CNC(=O)c2ccc3c(=O)[nH]c4c(C(=O)NCC5CCCO5)sc(=S)n4c3c2)cc1 (stereo not given)	-9.06%	1.93%	9.83%	-11.5%	0.797%
O=S(=O)(c1ccc(Cl)cc1)c1nnn2c1nc(NCCc1ccccc1)c1ccccc12	-0.293%	1.95%	5.41%	3.3%	-0.032%
CN(Cc1ccccc1)C1(C(=O)NC2CCC(O)CC2)Cc2ccccc2C1 (stereo not given)	-0.552%	-1.52%	-0.33%	0.079%	0.522%
CCCOc1ccc(CN2C(=O)c3cc(C(C)(C)C)nn3CC2(C)C(=O)NC2CCCCC2)cc1 (stereo not given)	-2.96%	3.25%	5.75%	-2.27%	-1.35%
CSCCC(=O)N[C@H]1CN(c2cc(C3CC3)ncn2)C[C@@H]1C1CC1	-6.5%	-6.76%	-4.96%	-7.25%	-0.917%
Cn1cc(C(=O)NCCc2cccs2)c(S(=O)(=O)N2CCCCC2)n1	-2.65%	4.71%	-5.89%	-7.07%	-6.02%
CN(C)C[C@@H]1CN(C2CCOCC2)C[C@H]1NC(=O)c1cc2ccccc2[nH]1	-5.42%	-5.36%	-4.02%	-8.23%	-3.54%
O=C([C@@H]1C[C@H](F)CN1S(=O)(=O)Cc1ccccc1)N1CCOCC1	-3.24%	-8.6%	-6.9%	-8%	-7.77%

Structure (SMILES)	activity change, negative = inhibition [1]	activity change, negative = inhibition [2]	activity change, negative = inhibition [3]	activity change, negative = inhibition [4]	activity change, negative = inhibition [5]
CC(C)(O)c1ccc2c(c1)C(O)CC1C(C)(C(=O)O)CCCC21C (stereo not given)	0.562%	6.2%	9.63%	-7.76%	2.1%
COC1CCCN(C(=O)c2cnc(Cc3c(Cl)cccc3Cl)[nH]c2=O)C1 (stereo not given)	-5.49%	0.179%	0.509%	0.191%	1.39%
CNC1CN(c2ccc3c(=O)c(C(=O)O)cn(-c4nccs4)c3n2)CC1OC (stereo not given)	-2.4%	–	-5.13%	–	–
CO[C@@H]1COCC[C@H]1NC(=O)c1cn(CCN2CCNCC2)nn1	-0.83%	-3.75%	0.818%	-2.43%	-2.73%
O=C(CCc1nnc2n(CCc3ccccc3)c(=O)c3ccccc3n12)N1CCC(Cc2ccccc2)CC1	-5.2%	0%	5.42%	3.05%	-1.58%
O=C(CN1C(=O)CNC1=O)N[C@H](c1ccc2c(c1)CCO2)C1CC(O)C1 (stereo not given in full)	-5.76%	-8.97%	-4.04%	-12.1%	-7.92%
COCCCNc1nc(-c2cccnc2)nc2c1CNC2	-5.03%	-5.86%	-4.64%	-4.72%	-9.51%
O=C(c1cc(CN2CCC(Cc3ccccc3)CC2)on1)N1CCN2CCCC2C1 (stereo not given)	-3.25%	-10.2%	-2.62%	-5.89%	-1.95%
CCN(Cc1nccn1C)C(=O)c1cc(-c2cnc(C)nc2)nc2ccc(F)cc12	-2.13%	-3.52%	-2.63%	-11.5%	-6.71%
CCC(=O)N1CCN(c2ccc(-n3c(=O)ccc4cnc5ccc(-c6cnc7ccccc7c6)cc5c43)cc2C(F)(F)F)CC1	2.33%	1.15%	4.54%	-10.9%	-4.21%
CC(=O)N1CCc2nn(CC(=O)Nc3ccccc3C(C)C)c(=O)cc2C1	-1.65%	-6.24%	-2.32%	-9.64%	-2.15%
COc1ccc(-c2cnc([C@@H]3COCCN3Cc3nc4ccccc4n3C)[nH]2)cc1	-8.25%	-8.75%	-7.35%	-16.1%	2.28%
CC1(C)CC=C(C#Cc2ccccc2)c2cc(/C=C/c3ccc(C(=O)O)cc3)ccc21	-37.5%	-3.97%	-3.11%	-33.2%	-4.27%
CCC(C(=O)NCc1c(C)ncc2c1CCNC2)n1cccn1 (stereo not given)	-3.7%	-1.64%	-3.61%	-3.65%	-8.5%
O=C(O)c1ccnc(-c2ccnc(NCCCN3CCCC3=O)n2)c1	-6%	-8.64%	-4.8%	-14.2%	-10.7%
O=C(C1CCOCC1)N1CCOC[C@H](Oc2ccccc2)C1	-3.87%	-3.6%	-1.57%	-7.32%	-1.12%
Cc1ccc(Nc2ccnc(N3CCC(C(=O)NCc4ccc(F)cc4)CC3)n2)cc1	-4.49%	1.51%	-5.36%	-7.06%	6.39%
Cc1ccc(C)c(NS(=O)(=O)c2ccc3c(c2)[C@H]2C=CC[C@H]2[C@@H](c2cccc(Cl)c2)N3)c1	-6.89%	-0.503%	-14%	-18.1%	-11.7%
C=C1C[C@]23C[C@H]1CC[C@H]2C1=C[C@H]2OC(=O)[C@@](C)([C@H]1[C@@H]3C(=O)O)[C@H]2O	4.22%	3.54%	8.78%	-7.11%	2.64%
